About 230 (0.21%) of roughly 110,000 compounds showed an effect of 50% or more. This is one part of the list.
What follows are compounds tested against DPAP1 (Plasmodium falciparum, UniProt Q8IIJ9) (assay: primary screen, percent inhibition; read by cleavage of a fluorogenic dipeptide substrate; higher = more effect of the substance).
Parameters: species or system P. falciparum D10 trophozoite lysates; single well
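Also: 30 min substrate incubation versus DMSO and 10 µM JCP410 controls.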

DPAP1, sequence (Q8IIJ9 whole entry, looked up): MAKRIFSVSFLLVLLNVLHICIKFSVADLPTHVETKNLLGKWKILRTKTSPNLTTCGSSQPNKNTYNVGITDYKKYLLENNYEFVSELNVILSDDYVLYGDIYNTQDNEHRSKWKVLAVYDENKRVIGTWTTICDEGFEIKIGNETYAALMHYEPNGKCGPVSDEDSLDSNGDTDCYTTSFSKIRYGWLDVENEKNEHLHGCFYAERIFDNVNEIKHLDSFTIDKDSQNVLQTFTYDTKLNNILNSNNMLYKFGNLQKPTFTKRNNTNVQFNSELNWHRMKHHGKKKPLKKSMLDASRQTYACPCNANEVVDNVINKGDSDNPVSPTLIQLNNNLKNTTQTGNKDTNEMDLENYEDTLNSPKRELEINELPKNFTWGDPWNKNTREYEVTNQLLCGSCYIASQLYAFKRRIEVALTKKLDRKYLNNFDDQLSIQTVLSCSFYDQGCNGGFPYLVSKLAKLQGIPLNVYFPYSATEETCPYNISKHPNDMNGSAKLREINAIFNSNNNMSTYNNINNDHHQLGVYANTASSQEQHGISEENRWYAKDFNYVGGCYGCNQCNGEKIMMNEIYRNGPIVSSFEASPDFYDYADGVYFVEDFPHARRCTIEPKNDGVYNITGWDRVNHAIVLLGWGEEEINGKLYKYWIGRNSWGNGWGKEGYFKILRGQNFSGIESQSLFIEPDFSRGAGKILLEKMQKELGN

**Q.** How did the “% Inhibition @ 10 uM” value turn out when `O=c1[nH]c2ncccc2c(=O)n1Cc1ccc2c(c1)OCO2` was run?
**A.** -7.18%

**Q.** Which “% Inhibition @ 10 uM” value does the source give for `O=C(O)c1cc(-c2cccs2)nc2ccc(Br)cc12` here?
**A.** 0.634%

**Q.** With `COc1ccc(NC(=O)c2nc3ccccc3s2)cc1` as the compound, how does the “% Inhibition @ 10 uM” value read?
**A.** 3.58%

**Q.** Which “% Inhibition @ 10 uM” value does the source give for `CC(=O)c1ccc(NC(=O)CC(c2ccccc2)c2ccccc2)cc1` here?
**A.** -4.82%

**Q.** For `COc1cccc(C2C3=C(O)CC(C)(C)CC3=NC(C)=C2C(=O)Nc2cc(C)ccn2)c1` (centres unmarked), which “% Inhibition @ 10 uM” value is on record?
**A.** -1.1%

**Q.** How did the “% Inhibition @ 10 uM” value turn out when `CC(C)C1=NN2C(=N)/C(=C\c3coc4ccccc4c3=O)C(=O)N=C2S1` was run?
**A.** 11.3%

**Q.** For `Cc1ccc(NC(=O)COc2ccc([N+](=O)[O-])cc2)c(C)c1`, which “% Inhibition @ 10 uM” value is on record?
**A.** 6.94%

**Q.** How did the “% Inhibition @ 10 uM” value turn out when `O=C(O)CCC(=O)Nc1ccc(N2CCN(c3ccc(Cl)c(Cl)c3)CC2)cc1` was run?
**A.** -7.47%

**Q.** `CN(C)c1nc(Oc2ccc(OCc3ccccc3)nn2)nc(N(C)C)n1` was tested. Which “% Inhibition @ 10 uM” value did it give?
**A.** -6.95%

**Q.** For `O=C(CN1C(=O)c2cccc3cccc(c23)C1=O)NCc1ccc2c(c1)OCO2`, which “% Inhibition @ 10 uM” value is on record?
**A.** -6.86%

**Q.** Which “% Inhibition @ 10 uM” value does the source give for `CC(C)C[C@H](NC(=O)N1CCOCC1)C(=O)NCC#N` here?
**A.** -8.82%

**Q.** Which “% Inhibition @ 10 uM” value does the source give for `CC(C)c1ccc(NC(=O)c2ccccc2N)cc1` here?
**A.** -3.1%

**Q.** For `C=CCO/C(O)=C1/C(C)=Nc2nc3ccccc3n2C1c1ccc(F)cc1` (centres unmarked), which “% Inhibition @ 10 uM” value is on record?
**A.** 1.53%

**Q.** For `Cc1noc(/C=C/c2cccs2)c1S(=O)(=O)N1CCCC(C(=O)NCCC(C)C)C1` (centres unmarked), which “% Inhibition @ 10 uM” value is on record?
**A.** 3.32%

**Q.** How did the “% Inhibition @ 10 uM” value turn out when `CCOC(=O)N1CCN(Cc2ccc(SC)cc2)CC1` was run?
**A.** 3.24%

**Q.** Which “% Inhibition @ 10 uM” value does the source give for `Cc1ccccc1Cn1c2ccccc2c2cnn(CC(=O)NC3CCCC3)c(=O)c21` here?
**A.** 3.4%

**Q.** How did the “% Inhibition @ 10 uM” value turn out when `CCOc1ccc(-n2c(C)c(C(=O)OC)c3cc(OC)ccc32)cc1` was run?
**A.** 2.16%

**Q.** With `Cn1cc(C(=O)N2CCOCC2)c2c3ccccc3n(C)c2c1=O` as the compound, how does the “% Inhibition @ 10 uM” value read?
**A.** 0.0654%

**Q.** `Cc1cc(C)c(S(=O)(=O)c2nnn3c2nc(NCC2CCCO2)c2ccccc23)c(C)c1` (centres unmarked) was tested. Which “% Inhibition @ 10 uM” value did it give?
**A.** -4.85%

**Q.** For `Cc1nc2c3ccccc3n3c(CCCC(=O)NCC(C)c4ccccc4)nnc3n2n1` (centres unmarked), which “% Inhibition @ 10 uM” value is on record?
**A.** -2.92%

**Q.** With `COc1ccc(NC(=O)/C(=C\c2ccco2)NC(=O)c2ccccc2)cc1` as the compound, how does the “% Inhibition @ 10 uM” value read?
**A.** 2.45%

**Q.** `O=C(C1=C(O)C(=O)N(Cc2ccco2)C1c1cccnc1)c1ccc(Br)cc1` (centres unmarked) was tested. Which “% Inhibition @ 10 uM” value did it give?
**A.** -1.22%

**Q.** `COc1ccc(N2CCN(Cc3ccc(C)o3)CC2)cc1` was tested. Which “% Inhibition @ 10 uM” value did it give?
**A.** -2.21%

**Q.** For `Cc1ccccc1CSCC(=O)NCCSC1CCCCC1`, which “% Inhibition @ 10 uM” value is on record?
**A.** 4.28%

**Q.** How did the “% Inhibition @ 10 uM” value turn out when `Cc1ccc(C=C2C(=O)N(C)C(=O)N(C)C2=O)s1` was run?
**A.** 4.95%

**Q.** With `CCCN1CCC(N2CCC(C(N)=O)CC2)CC1` as the compound, how does the “% Inhibition @ 10 uM” value read?
**A.** 6.18%

**Q.** `Cc1cc2c(c(=O)o1)C(c1ccco1)C(C#N)=C(N)O2` (centres unmarked) was tested. Which “% Inhibition @ 10 uM” value did it give?
**A.** -1.98%

**Q.** Which “% Inhibition @ 10 uM” value does the source give for `CCc1nnc(NC(=O)CSc2nc(-c3ccc(C)cc3)ns2)s1` here?
**A.** -0.398%

**Q.** For `CC(C)(C)NC(=O)C1COc2ccccc2O1` (centres unmarked), which “% Inhibition @ 10 uM” value is on record?
**A.** -1.95%

**Q.** How did the “% Inhibition @ 10 uM” value turn out when `Cc1cccc(N2CCN(C(=O)N3CCOCC3)CC2)c1C` was run?
**A.** -0.173%

**Q.** `O=C1NC(=O)/C(=C\c2ccc(-c3ccc(Cl)c(C(=O)O)c3)o2)S1` was tested. Which “% Inhibition @ 10 uM” value did it give?
**A.** 8.24%

**Q.** With `Cn1cc(NC(=O)Nc2ccc(Cl)cn2)c2ccccc2c1=O` as the compound, how does the “% Inhibition @ 10 uM” value read?
**A.** 8.33%

**Q.** For `Cc1ccc(NC(=O)c2ccc(Br)cc2)cc1C`, which “% Inhibition @ 10 uM” value is on record?
**A.** 2.22%

**Q.** How did the “% Inhibition @ 10 uM” value turn out when `CC(C)NC(=O)c1sc2nc(-c3ccc(F)cc3)ccc2c1N` was run?
**A.** 3.5%

**Q.** With `Cc1cc(C)c2c(N)c(C(=O)Nc3cccc(C(F)(F)F)c3)sc2n1` as the compound, how does the “% Inhibition @ 10 uM” value read?
**A.** -1.28%

**Q.** For `CCOC(=O)C1=C(C)OC(N)=C(C#N)C1c1ccc(-c2ccccc2)cc1` (centres unmarked), which “% Inhibition @ 10 uM” value is on record?
**A.** -4.94%

**Q.** For `COc1ccc(-c2cnc3c(=O)[nH]c(=O)[nH]c3n2)cc1`, which “% Inhibition @ 10 uM” value is on record?
**A.** -5.35%

**Q.** `CCOc1ccc(Cc2nc(-c3ccc(C(F)(F)F)cc3)no2)cc1OCC` was tested. Which “% Inhibition @ 10 uM” value did it give?
**A.** 1.84%

**Q.** How did the “% Inhibition @ 10 uM” value turn out when `COc1ccc(CCNC(=O)c2sc3nc(C)cc(C)c3c2-n2cccc2)cc1OC` was run?
**A.** 2.27%

**Q.** Which “% Inhibition @ 10 uM” value does the source give for `O=C(Nc1ccc(F)cc1)c1cccc([N+](=O)[O-])c1` here?
**A.** -1.93%

**Q.** Which “% Inhibition @ 10 uM” value does the source give for `C/N=C1/S/C(=C/c2ccc(-c3ccc(F)cc3F)o2)C(=O)N1C` here?
**A.** -5.82%

**Q.** Which “% Inhibition @ 10 uM” value does the source give for `c1cncc(-c2nc3c4ccccc4nc(NCCCN(Cc4ccco4)C4CCCC4)n3n2)c1` here?
**A.** -0.692%

**Q.** `Cc1ccc(CN(CC(=O)N2CCN(c3ccc(F)cc3)CC2)S(=O)(=O)c2ccccc2)cc1` was tested. Which “% Inhibition @ 10 uM” value did it give?
**A.** -5.46%

**Q.** Which “% Inhibition @ 10 uM” value does the source give for `CCc1nnc(NC(=O)c2cc(Cl)c(OC)c(Cl)c2)s1` here?
**A.** 7.73%

**Q.** For `CC(C)(C)c1ccc(C(=O)N2CCN(C34CC5CC(CC(C5)C3)C4)CC2)cc1`, which “% Inhibition @ 10 uM” value is on record?
**A.** 0.9%

**Q.** With `CCOC(=O)C1CCCN(Cc2ccc(C)cc2C)C1` (centres unmarked) as the compound, how does the “% Inhibition @ 10 uM” value read?
**A.** -0.197%

**Q.** How did the “% Inhibition @ 10 uM” value turn out when `CCN(CC)S(=O)(=O)c1ccc(NC(=O)COc2ccc(Cl)cc2Br)cc1` was run?
**A.** -3.34%

**Q.** How did the “% Inhibition @ 10 uM” value turn out when `COc1ccc(CCn2c(C)c(C(C)=O)c(C(C)=O)c2C)cc1OC` was run?
**A.** -2.75%

**Q.** `COc1cc2c(cc1OC)C(c1cccc(OC)c1O)N(C(C)=O)CC2` (centres unmarked) was tested. Which “% Inhibition @ 10 uM” value did it give?
**A.** 1.08%

**Q.** `CCCCN1C(=O)CN(C2CCCCCC2)C(=O)C1c1ccccc1F` (centres unmarked) was tested. Which “% Inhibition @ 10 uM” value did it give?
**A.** -2.26%

From publication PMC6919601, “Identification of Plasmodium dipeptidyl aminopeptidase allosteric inhibitors by high throughput screening” (PLoS ONE, 2019)
